# Test results as given in US9234025B2, “Extracellular allosteric inhibitor binding domain from a tyrosine kinase receptor” (SANOFI, priority 2009, dated 2016).
# Tests used:
# [1] = biological target: T1, FGFR2^∂23-YH (Homo sapiens, UniProt P21802, H293L/Y328D); assay: FTIR measurement, FGFR2 Y328D/H293L double mutant; conditions: FGFR2^∂23-YH double mutant; 100 μM SSR
# T1 construct: FGFR2^∂23 (consisting of domain D2 and 3); made in house
# Experimental: (§1) Fourier transform infrared measurements were performed using a Bruker Tensor 37 FT-IR spectrometer equipped with an AquaSpec flowcell. The sample compartment was thermostatted to 25° C., 100 spectra were averaged for a good signal to noise ratio. Proteins were purified as described above. Immediately after the gelfiltration, the proteins were dialysed overnight in the same preparation of buffer (10 mM Hepes pH 7.2, 150 mM NaCl) in the presence or absence of SSR. Dialysis buffer samples were used to substract background signal. The analysis was performed using the OPUS software package, provided by Bruker. Interpretation of the results was performed as described {Barth, 2002 #60}.
# (§2) We next explored whether SSR bound to amino acid residues that form part of the orthosteric site in D3 or to an alternative allosteric site. Initially, we used the molecular docking algorithms of the software packages MOLEGRO, Autodock and YASARA and available crystallographic data. […] These findings are consistent with a model whereby SSR binds to an allosteric site formed by a hydrophobic pocket near the orthosteric ligand binding site, and in which residue Tyr^328 seems to be critical for mediating the interaction between SSR to FGFR2. We also analyzed the FTIR spectrum of the aforementioned mutated FGFR2 fragments.
# [2] = biological target: T2, FGFR2^∂23-H293L (Homo sapiens, UniProt P21802, H293L); assay: FTIR measurement, FGFR2 H293L mutant; conditions: 100 μM SSR
# T2 construct: FGFR2^∂23 (consisting of domain D2 and 3); made in house
# Experimental: as §1, §2
smiles,measurement,setting,value
COc1c(C)c(C(=O)c2ccc(N)c(C(=O)[O-])c2)n2ccccc12.[Na+] [SSR],change of FTIR spectrum (conformational change),[1],failed to induce this change
same,change of FTIR spectrum (conformational change),[2],induced a comparable shift of the FTIR spectrum
